Source: patent US10299477B2 (priority 2015, dated 2019)

Experiments:
Botrytis cinerea = assay: Test Example B: Gray mold on tomato; type: in vivo; settings: for Test B (control value class, gray mold on tomato): in vivo
Alternaia brassicicola = assay: Test Example C: Alternaria sooty spot on cabbage; type: in vivo; settings: for Test C (control value class): Alternaria sooty spot on cabbage; for Test C (control value class, Alternaria sooty spot on cabbage): in vivo
[1] = system: Blumeria graminis f sp. hordei; assay: Test Example D: Powdery mildew on barley; type: in vivo; settings: for Test D (control value class, powdery mildew on barley): in vivo
Puccinia recondita = assay: Test Example E: Brown rust on wheat; type: in vivo; settings: for Test E (control value class, brown rust on wheat): in vivo
Plasmopara viticola = assay: Test Example G: Downy mildew on vine; type: in vivo; settings: for Test G (control value class): 250 ppm spray; for Test G (control value class, downy mildew on vine): 250 ppm, sprayed 2.5 ml/pot before inoculation
[2] = system: Colletotrichum orbiculare; settings: for Test H (control value class): in vivo; for Test H (control value class, anthracnose on cucumber): 250 ppm, sprayed 2.5 ml/pot before inoculation, evaluated 6-10 days after inoculation
[3] = Gray mold on tomato, control value=100{1-(n/3)}
[4] = Powdery mildew on barley, control value=100{1-(n/3)}
[5] = Brown rust on wheat, control value=100{1-(n/3)}
[6] = Downy mildew on vine, 2.5 ml/pot, evaluated 7-10 days after inoculation
[7] = evaluated 7-10 days after inoculation
[8] = gray mold on tomato, Botrytis cinerea, 250 ppm spray
[9] = powdery mildew on barley, 250 ppm spray
[10] = brown rust on wheat, Puccinia recondita, 250 ppm spray
[11] = downy mildew on vine, Plasmopara viticola, 7-10 days after inoculation

SMILES | Test B (control value class) (Botrytis cinerea; [3]) | Test C (control value class) (Alternaia brassicicola; control value=100{1-(n/3)}) | Test D (control value class) [1, 4] | Test E (control value class) (Puccinia recondita; [5]) | Test G (control value class) (Plasmopara viticola; [6]) | Test H (control value class) [2] | Test B (control value class, gray mold on tomato) (Botrytis cinerea) | Test C (control value class, Alternaria sooty spot on cabbage) (Alternaia brassicicola) | Test D (control value class, powdery mildew on barley) [1] | Test E (control value class, brown rust on wheat) (Puccinia recondita) | Test G (control value class, downy mildew on vine) (Plasmopara viticola; [7]) | Test H (control value class, anthracnose on cucumber) [2] | Test B (control value class) (Botrytis cinerea; [8]) | Test C (control value class) (Alternaia brassicicola; 250 ppm spray) | Test D (control value class) [1, 9] | Test E (control value class) (Puccinia recondita; [10]) | Test G (control value class) (Plasmopara viticola; [11])
COc1ccc(-c2cc(Cl)c(=O)n(C)c2-c2c(F)cc(F)cc2F)c(Cl)c1 [Compound 766] | H (H shows more than 50% of control values) | H (H shows more than 50% of control values) | L (L shows 50% or less of control values) | H (H shows more than 50% of control values) | L (L shows 50% or less of control values) | H (key: H shows more than 50% of control values; L shows 50% or less of control values) | – | – | – | – | – | – | – | – | – | – | –
COc1cc(F)c(-c2c(-c3cc(F)cc(F)c3Br)cc(Br)c(=O)n2C)c(F)c1 [Compound 825] | H (H shows more than 50% of control values) | H (H shows more than 50% of control values) | H (H shows more than 50% of control values) | H (H shows more than 50% of control values) | H (H shows more than 50% of control values) | H (key: H shows more than 50% of control values; L shows 50% or less of control values) | – | – | – | – | – | – | – | – | – | – | –
CCn1c(-c2c(F)cc(F)cc2F)c(-c2cccc(F)c2C)cc(Cl)c1=O [Compound 675] | – | – | – | – | – | – | H (H shows more than 50% of control values) | H (H shows more than 50% of control values) | H (H shows more than 50% of control values) | H (H shows more than 50% of control values) | H (H shows more than 50% of control values) | H (H shows more than 50% of control values) | – | – | – | – | –
COc1cc(F)c(-c2c(-c3cccc(F)c3F)cc(Br)c(=O)n2C)c(F)c1 [Compound 563] | – | – | – | – | – | – | H (H shows more than 50% of control values) | H (H shows more than 50% of control values) | H (H shows more than 50% of control values) | H (H shows more than 50% of control values) | L (L shows 50% or less of control values) | H (H shows more than 50% of control values) | – | – | – | – | –
CCn1c(-c2c(F)cccc2F)c(-c2cc(Cl)ccc2Cl)cc(Cl)c1=O [Compound 445] | – | – | – | – | – | H (key: H shows more than 50% of control values; L shows 50% or less of control values) | – | – | – | – | – | – | H (H shows more than 50% of control values) | H (H shows more than 50% of control values) | H (H shows more than 50% of control values) | H (H shows more than 50% of control values) | L (L shows 50% or less of control values)
CCn1c(-c2c(F)cc(OC)cc2F)c(-c2cccc(OC)c2Cl)cc(Br)c1=O [Compound 642] | – | – | – | – | – | – | H (H shows more than 50% of control values) | H (H shows more than 50% of control values) | H (H shows more than 50% of control values) | H (H shows more than 50% of control values) | H (H shows more than 50% of control values) | H (H shows more than 50% of control values) | – | – | – | – | –
CCn1c(-c2c(F)cccc2F)c(-c2cccc(F)c2F)ccc1=O [Compound 518] | – | – | – | – | – | H (key: H shows more than 50% of control values; L shows 50% or less of control values) | – | – | – | – | – | – | H (H shows more than 50% of control values) | H (H shows more than 50% of control values) | H (H shows more than 50% of control values) | H (H shows more than 50% of control values) | L (L shows 50% or less of control values)
CCOc1cc(F)c(-c2c(-c3cccc(F)c3C)cc(Cl)c(=O)n2CC)c(F)c1 [Compound 700] | – | – | – | – | – | – | H (H shows more than 50% of control values) | H (H shows more than 50% of control values) | H (H shows more than 50% of control values) | H (H shows more than 50% of control values) | H (H shows more than 50% of control values) | H (H shows more than 50% of control values) | – | – | – | – | –
CCn1c(-c2c(F)cc(F)cc2F)c(-c2cccc(F)c2Cl)cc(C)c1=O [Compound 501] | – | – | – | – | – | H (key: H shows more than 50% of control values; L shows 50% or less of control values) | – | – | – | – | – | – | H (H shows more than 50% of control values) | H (H shows more than 50% of control values) | H (H shows more than 50% of control values) | H (H shows more than 50% of control values) | H (H shows more than 50% of control values)
CCn1c(-c2c(F)cc(OC)cc2F)c(-c2ccc(OC)cc2Cl)cc(C)c1=O [Compound 751] | H (H shows more than 50% of control values) | H (H shows more than 50% of control values) | H (H shows more than 50% of control values) | H (H shows more than 50% of control values) | L (L shows 50% or less of control values) | H (key: H shows more than 50% of control values; L shows 50% or less of control values) | – | – | – | – | – | – | – | – | – | – | –
CCn1c(-c2c(F)cc(C)cc2F)c(-c2cc(F)ccc2Cl)cc(Br)c1=O [Compound 709] | – | – | – | – | – | – | H (H shows more than 50% of control values) | L (L shows 50% or less of control values) | L (L shows 50% or less of control values) | L (L shows 50% or less of control values) | L (L shows 50% or less of control values) | L (L shows 50% or less of control values) | – | – | – | – | –
Cn1c(-c2c(F)cc(F)cc2F)c(-c2cccc(F)c2F)ccc1=O [Compound 557] | – | – | – | – | – | H (key: H shows more than 50% of control values; L shows 50% or less of control values) | – | – | – | – | – | – | H (H shows more than 50% of control values) | H (H shows more than 50% of control values) | H (H shows more than 50% of control values) | H (H shows more than 50% of control values) | H (H shows more than 50% of control values)
Cn1c(-c2c(F)cccc2F)c(-c2ccc(F)cc2F)ccc1=O [Compound 631] | – | – | – | – | – | – | H (H shows more than 50% of control values) | H (H shows more than 50% of control values) | H (H shows more than 50% of control values) | H (H shows more than 50% of control values) | L (L shows 50% or less of control values) | H (H shows more than 50% of control values) | – | – | – | – | –
CCn1c(-c2c(F)cc(F)cc2F)c(-c2cc(F)cc(F)c2Cl)cc(Br)c1=O [Compound 688] | – | – | – | – | – | – | H (H shows more than 50% of control values) | H (H shows more than 50% of control values) | H (H shows more than 50% of control values) | H (H shows more than 50% of control values) | L (L shows 50% or less of control values) | H (H shows more than 50% of control values) | – | – | – | – | –
O=c1c(Cl)cc(-c2ccc(F)cc2F)c(-c2c(F)cccc2F)n1CC(F)F [Compound 648] | – | – | – | – | – | – | H (H shows more than 50% of control values) | H (H shows more than 50% of control values) | H (H shows more than 50% of control values) | H (H shows more than 50% of control values) | L (L shows 50% or less of control values) | H (H shows more than 50% of control values) | – | – | – | – | –
CCn1c(-c2c(F)cc(OC)cc2F)c(-c2cc(F)ccc2Cl)ccc1=O [Compound 382] | – | – | – | – | – | H (key: H shows more than 50% of control values; L shows 50% or less of control values) | – | – | – | – | – | – | H (H shows more than 50% of control values) | H (H shows more than 50% of control values) | H (H shows more than 50% of control values) | H (H shows more than 50% of control values) | L (L shows 50% or less of control values)
